Results: the antibiotic and cytotoxicity screens of Wong et al. (2023)
Some of the results follow.

Key:
[1] = test system: HSkMC (human skeletal muscle cells); assay: cytotoxicity call (relative viability < 0.9); details: 10 µM
[2] = test system: HepG2; assay: cytotoxicity call (relative viability < 0.9); details: 10 µM
[3] = test system: S. aureus RN4220; assay: growth inhibition call (relative growth <= 0.2); details: 50 µM

Question: What does the source list for C[C@@H]1CN([C@H](C)CO)C(=O)Cc2cc(NS(C)(=O)=O)ccc2O[C@@H]1CN(C)S(C)(=O)=O?
Answer: cytotoxicity call [1]: inactive; cytotoxicity call [2]: inactive; growth inhibition call [3]: inactive

Question: With COCCNC(=O)C[C@H]1CC[C@H]2[C@@H](COc3ccc(NC(=O)Nc4cccc(F)c4)cc3C(=O)N2C)O1 as the compound, how does the cytotoxicity call [1] read?
Answer: The cytotoxicity call was “inactive”.

Question: What about the cytotoxicity call [2] of the same compound?
Answer: The cytotoxicity call was “inactive”.

Question: And the growth inhibition call [3]?
Answer: Its growth inhibition call is “inactive”.

Question: CC(C)NC(=O)N(C)C[C@H]1Oc2ccc(NC(=O)c3ccncc3)cc2CC(=O)N([C@@H](C)CO)C[C@@H]1C was tested. Which cytotoxicity call [1] did it give?
Answer: Its cytotoxicity call is “inactive”.

Question: And the cytotoxicity call [2]?
Answer: Its cytotoxicity call is “inactive”.

Question: And the growth inhibition call [3]?
Answer: The growth inhibition call was “inactive”.

Question: Which cytotoxicity call [1] does the source give for O=C(C[C@@H]1CC=CCC[C@@H](Cc2ccc(F)cc2)C(=O)OC[C@@H](Cc2c[nH]c3ccccc23)NC1=O)N[C@H](CO)Cc1ccccc1 here?
Answer: The cytotoxicity call was “active”.

Question: And the cytotoxicity call [2]?
Answer: The cytotoxicity call was “active”.

Question: And the growth inhibition call [3]?
Answer: Its growth inhibition call is “inactive”.

Question: Which cytotoxicity call [1] does the source give for C[C@H]1CCCCO[C@H](CN(C)C(=O)Nc2ccc(C(F)(F)F)cc2)[C@@H](C)CN([C@@H](C)CO)C(=O)c2cc(NC(=O)Nc3ccc4c(c3)OCO4)ccc2O1 here?
Answer: Its cytotoxicity call is “inactive”.

Question: And the cytotoxicity call [2]?
Answer: The cytotoxicity call was “inactive”.

Question: And the growth inhibition call [3]?
Answer: The growth inhibition call was “inactive”.

Question: Which cytotoxicity call [1] does the source give for CCN(CC)CCCNC(=O)C1CCNCC1 here?
Answer: The cytotoxicity call was “inactive”.

Question: What about the cytotoxicity call [2] of the same compound?
Answer: Its cytotoxicity call is “inactive”.

Question: What about the growth inhibition call [3] of the same compound?
Answer: The growth inhibition call was “inactive”.

Question: With C[C@@H]1CN([C@H](C)CO)C(=O)c2c(c3ccccc3n2C)-c2ccccc2CO[C@@H]1CN(C)C(=O)Nc1cccc(F)c1 as the compound, how does the cytotoxicity call [1] read?
Answer: Its cytotoxicity call is “inactive”.

Question: And the cytotoxicity call [2]?
Answer: The cytotoxicity call was “inactive”.

Question: What about the growth inhibition call [3] of the same compound?
Answer: Its growth inhibition call is “inactive”.

Question: Which results are given for C[C@H]1CN([C@@H](C)CO)C(=O)c2cc(NC(=O)CCCCCC(=O)Nc3ccccc3N)ccc2O[C@H]1CN(C)CC1CCCCC1?
Answer: cytotoxicity call [1]: inactive; cytotoxicity call [2]: active; growth inhibition call [3]: inactive

Question: What does the source list for COc1ccc(NC(=O)Nc2ccc3c(c2)C(=O)N([C@@H](C)CO)C[C@H](C)[C@@H](CN(C)CC2CCCCC2)OCCCC[C@H](C)O3)cc1?
Answer: cytotoxicity call [1]: inactive; cytotoxicity call [2]: inactive; growth inhibition call [3]: inactive

Question: Which results are given for CN1CCN(C(=O)C[C@@H]2CC[C@H]3[C@@H](COC[C@H](O)CN3C(=O)C3CCCC3)O2)CC1?
Answer: cytotoxicity call [1]: inactive; cytotoxicity call [2]: inactive; growth inhibition call [3]: inactive

Question: Which cytotoxicity call [1] does the source give for Cc1cc(N)n2nc(C)cc2n1 here?
Answer: The cytotoxicity call was “inactive”.

Question: What about the cytotoxicity call [2] of the same compound?
Answer: Its cytotoxicity call is “inactive”.

Question: And the growth inhibition call [3]?
Answer: Its growth inhibition call is “inactive”.

Question: How did the cytotoxicity call [1] turn out when O=C([C@H]1[C@H](CO)[C@H]2Cn3c(cccc3=O)[C@@H]1N2S(=O)(=O)c1ccccc1F)N1CCOCC1 was run?
Answer: The cytotoxicity call was “inactive”.

Question: And the cytotoxicity call [2]?
Answer: The cytotoxicity call was “inactive”.

Question: And the growth inhibition call [3]?
Answer: The growth inhibition call was “inactive”.

Question: CCOC(=O)c1nnn(CC(N)=O)c1C was tested. Which cytotoxicity call [1] did it give?
Answer: Its cytotoxicity call is “inactive”.

Question: What about the cytotoxicity call [2] of the same compound?
Answer: The cytotoxicity call was “inactive”.

Question: What about the growth inhibition call [3] of the same compound?
Answer: Its growth inhibition call is “inactive”.

Question: Which cytotoxicity call [1] does the source give for COc1cccc(NC(=O)N2C[C@H](O)COC[C@@H]3O[C@H](CC(=O)NCCCN4CCOCC4)CC[C@H]32)c1 here?
Answer: The cytotoxicity call was “inactive”.

Question: What about the cytotoxicity call [2] of the same compound?
Answer: Its cytotoxicity call is “inactive”.

Question: What about the growth inhibition call [3] of the same compound?
Answer: Its growth inhibition call is “inactive”.

Question: COc1ccc(S(=O)(=O)Nc2ccc3c(c2)C(=O)N([C@@H](C)CO)C[C@@H](C)[C@H](CN(C)Cc2ccc(C(=O)O)cc2)OCCCC[C@H](C)O3)cc1 was tested. Which cytotoxicity call [1] did it give?
Answer: The cytotoxicity call was “inactive”.

Question: What about the cytotoxicity call [2] of the same compound?
Answer: Its cytotoxicity call is “inactive”.

Question: And the growth inhibition call [3]?
Answer: Its growth inhibition call is “inactive”.

Question: What does the source list for COc1ccc(S(=O)(=O)Nc2ccc3c(c2)C(=O)N([C@@H](C)CO)C[C@H](C)[C@H](CN(C)Cc2ccc(Oc4ccccc4)cc2)O3)cc1?
Answer: cytotoxicity call [1]: inactive; cytotoxicity call [2]: inactive; growth inhibition call [3]: inactive

Question: How did the cytotoxicity call [1] turn out when COc1ccc(S(=O)(=O)N[C@H]2CC[C@@H](CC(=O)N3CCN(c4ccccc4)CC3)O[C@@H]2CO)cc1 was run?
Answer: The cytotoxicity call was “inactive”.

Question: What about the cytotoxicity call [2] of the same compound?
Answer: The cytotoxicity call was “inactive”.

Question: And the growth inhibition call [3]?
Answer: The growth inhibition call was “inactive”.

Question: CCCNC(=O)C[C@H]1CC[C@@H]2[C@H](COc3ccc(NS(=O)(=O)c4ccccc4C)cc3C(=O)N2C)O1 was tested. Which cytotoxicity call [1] did it give?
Answer: Its cytotoxicity call is “inactive”.

Question: What about the cytotoxicity call [2] of the same compound?
Answer: The cytotoxicity call was “inactive”.

Question: And the growth inhibition call [3]?
Answer: Its growth inhibition call is “inactive”.

Question: Which results are given for CCNC(=O)c1cc2c(c(-c3cccc(-c4cccc(F)c4)c3)n1)[C@@H](CCO)N([S@](=O)C(C)(C)C)C2?
Answer: cytotoxicity call [1]: inactive; cytotoxicity call [2]: inactive; growth inhibition call [3]: inactive

Question: What does the source list for C[C@@H]1CN([C@@H](C)CO)C(=O)c2cc(NC(=O)CCN3CCOCC3)ccc2O[C@@H]1CN(C)Cc1ccc(C(=O)O)cc1?
Answer: cytotoxicity call [1]: inactive; cytotoxicity call [2]: inactive; growth inhibition call [3]: inactive

Question: With Cc1ccc(S(=O)(=O)Nc2cccc3c2O[C@H](CN(C)Cc2ccc(Cl)c(Cl)c2)[C@@H](C)CN([C@H](C)CO)C3=O)cc1 as the compound, how does the cytotoxicity call [1] read?
Answer: Its cytotoxicity call is “inactive”.

Question: And the cytotoxicity call [2]?
Answer: The cytotoxicity call was “inactive”.

Question: What about the growth inhibition call [3] of the same compound?
Answer: Its growth inhibition call is “inactive”.

Question: C[C@@H]1CN([C@@H](C)CN=[N+]=[N-])C(=O)c2cc(NC(=O)Nc3ccccc3)ccc2O[C@@H](C)CCCCO[C@H]1CN(C)S(=O)(=O)c1ccc(F)cc1 was tested. Which cytotoxicity call [1] did it give?
Answer: Its cytotoxicity call is “inactive”.

Question: And the cytotoxicity call [2]?
Answer: The cytotoxicity call was “active”.

Question: What about the growth inhibition call [3] of the same compound?
Answer: The growth inhibition call was “inactive”.

Question: Which cytotoxicity call [1] does the source give for COc1ccc(S(=O)(=O)Nc2ccc3c(c2)CC(=O)N([C@@H](C)CO)C[C@@H](C)[C@@H](CN(C)S(=O)(=O)c2cccs2)O3)cc1 here?
Answer: The cytotoxicity call was “inactive”.

Question: What about the cytotoxicity call [2] of the same compound?
Answer: The cytotoxicity call was “inactive”.

Question: What about the growth inhibition call [3] of the same compound?
Answer: The growth inhibition call was “inactive”.

Question: With CO[C@H]1O[C@@H](COC(C)=O)[C@@H](OC(C)=O)C(C#N)(C#N)[C@@H]1OC(C)=O as the compound, how does the cytotoxicity call [1] read?
Answer: The cytotoxicity call was “inactive”.

Question: What about the cytotoxicity call [2] of the same compound?
Answer: The cytotoxicity call was “inactive”.

Question: What about the growth inhibition call [3] of the same compound?
Answer: Its growth inhibition call is “inactive”.

Question: Cc1noc(C)c1NC(=O)Nc1cccc2c1O[C@H](CN(C)S(C)(=O)=O)[C@H](C)CN([C@@H](C)CO)C2=O was tested. Which cytotoxicity call [1] did it give?
Answer: Its cytotoxicity call is “inactive”.

Question: And the cytotoxicity call [2]?
Answer: The cytotoxicity call was “inactive”.

Question: And the growth inhibition call [3]?
Answer: Its growth inhibition call is “inactive”.

Question: Which cytotoxicity call [1] does the source give for Cc1noc(C)c1NC(=O)Nc1ccc2c(c1)C(=O)N([C@H](C)CO)C[C@H](C)[C@H](CN(C)C(=O)Nc1ccc(C(F)(F)F)cc1)O2 here?
Answer: Its cytotoxicity call is “inactive”.

Question: What about the cytotoxicity call [2] of the same compound?
Answer: The cytotoxicity call was “inactive”.

Question: What about the growth inhibition call [3] of the same compound?
Answer: Its growth inhibition call is “active”.

Question: Which results are given for C[C@@H]1CN([C@H](C)CO)C(=O)c2cc(NC(=O)NC3CCCCC3)ccc2O[C@@H](C)CCCCO[C@H]1CN(C)Cc1ccc2c(c1)OCO2?
Answer: cytotoxicity call [1]: inactive; cytotoxicity call [2]: inactive; growth inhibition call [3]: inactive

Question: With C[C@@H]1CN([C@H](C)CO)S(=O)(=O)c2ccc(C#CC(C)(C)O)cc2O[C@@H]1CN(C)C(=O)C1CCCCC1 as the compound, how does the cytotoxicity call [1] read?
Answer: The cytotoxicity call was “inactive”.

Question: What about the cytotoxicity call [2] of the same compound?
Answer: Its cytotoxicity call is “inactive”.

Question: What about the growth inhibition call [3] of the same compound?
Answer: Its growth inhibition call is “inactive”.

Question: CC(=O)N1CCc2c(sc(N)c2C(N)=O)C1 was tested. Which cytotoxicity call [1] did it give?
Answer: Its cytotoxicity call is “inactive”.

Question: What about the cytotoxicity call [2] of the same compound?
Answer: Its cytotoxicity call is “inactive”.

Question: And the growth inhibition call [3]?
Answer: The growth inhibition call was “inactive”.

Question: What does the source list for COc1ccc(NC(=O)N(C)C[C@H]2OCCCC[C@@H](C)Oc3ccc(NC(=O)Cc4ccccc4)cc3C(=O)N([C@@H](C)CO)C[C@@H]2C)cc1?
Answer: cytotoxicity call [1]: inactive; cytotoxicity call [2]: inactive; growth inhibition call [3]: inactive

Question: Which cytotoxicity call [1] does the source give for Nc1ccc2oc3c(c2c1)CCCC3 here?
Answer: The cytotoxicity call was “inactive”.

Question: And the cytotoxicity call [2]?
Answer: The cytotoxicity call was “inactive”.

Question: What about the growth inhibition call [3] of the same compound?
Answer: Its growth inhibition call is “inactive”.

Question: How did the cytotoxicity call [1] turn out when COCC(=O)N(C)C[C@@H]1Oc2cc(C#CC(C)(C)O)ccc2S(=O)(=O)N([C@H](C)CO)C[C@@H]1C was run?
Answer: The cytotoxicity call was “inactive”.

Question: And the cytotoxicity call [2]?
Answer: Its cytotoxicity call is “inactive”.

Question: And the growth inhibition call [3]?
Answer: The growth inhibition call was “inactive”.

Question: For C[C@H](CO)N1C[C@H](C)[C@@H](CN(C)Cc2ccc(C(=O)Nc3ccccc3N)cc2)Oc2c(NC(=O)C3CCCCC3)cccc2C1=O, which cytotoxicity call [1] is on record?
Answer: The cytotoxicity call was “inactive”.

Question: And the cytotoxicity call [2]?
Answer: Its cytotoxicity call is “inactive”.

Question: What about the growth inhibition call [3] of the same compound?
Answer: Its growth inhibition call is “inactive”.

Question: Which cytotoxicity call [1] does the source give for C[C@@H]1CN([C@H](C)CO)C(=O)c2cc(NC(=O)Nc3cccc4ccccc34)ccc2O[C@@H](C)CCCCO[C@@H]1CN(C)S(=O)(=O)c1ccc(Cl)cc1 here?
Answer: Its cytotoxicity call is “inactive”.

Question: What about the cytotoxicity call [2] of the same compound?
Answer: The cytotoxicity call was “inactive”.

Question: And the growth inhibition call [3]?
Answer: The growth inhibition call was “inactive”.
